From paper PMC8904574
Results are given in words; binding and its absence hold for the method and conditions named. For some assays here: Binding seen in cells or lysates may run through a third protein. Some binding calls cover weakened binding; strength is not graded here. Where a sequence is shown, tags or fusion partners need not be part of it.

Amino acid sequences for entries named in this document (tags omitted).
UniProt P50000: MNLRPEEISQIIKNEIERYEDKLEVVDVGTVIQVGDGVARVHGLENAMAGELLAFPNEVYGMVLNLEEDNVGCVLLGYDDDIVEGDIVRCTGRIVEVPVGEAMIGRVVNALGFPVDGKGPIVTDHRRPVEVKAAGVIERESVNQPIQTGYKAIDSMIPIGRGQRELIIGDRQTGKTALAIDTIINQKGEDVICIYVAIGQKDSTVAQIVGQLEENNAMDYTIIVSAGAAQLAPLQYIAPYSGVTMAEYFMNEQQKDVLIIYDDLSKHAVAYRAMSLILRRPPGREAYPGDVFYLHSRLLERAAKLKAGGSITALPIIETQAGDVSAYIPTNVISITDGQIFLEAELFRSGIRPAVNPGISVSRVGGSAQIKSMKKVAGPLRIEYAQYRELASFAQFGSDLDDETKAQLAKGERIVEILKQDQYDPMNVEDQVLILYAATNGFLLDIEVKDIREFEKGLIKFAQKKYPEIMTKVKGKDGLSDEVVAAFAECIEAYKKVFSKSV
UniProt P50002: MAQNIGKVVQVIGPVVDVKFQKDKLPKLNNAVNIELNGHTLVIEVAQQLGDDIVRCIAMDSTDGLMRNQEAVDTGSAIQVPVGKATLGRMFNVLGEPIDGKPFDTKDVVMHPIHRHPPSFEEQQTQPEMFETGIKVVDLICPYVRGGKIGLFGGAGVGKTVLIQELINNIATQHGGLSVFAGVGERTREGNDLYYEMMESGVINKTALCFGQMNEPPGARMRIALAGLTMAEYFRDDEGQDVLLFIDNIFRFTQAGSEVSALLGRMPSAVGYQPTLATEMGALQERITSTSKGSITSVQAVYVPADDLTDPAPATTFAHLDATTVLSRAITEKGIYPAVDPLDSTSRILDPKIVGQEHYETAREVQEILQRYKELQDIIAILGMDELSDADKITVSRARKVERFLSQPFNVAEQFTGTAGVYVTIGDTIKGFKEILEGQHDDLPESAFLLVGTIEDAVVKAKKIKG

T1: ε-subunit of the A. woodii F1 ATP synthase with His6 tag (Acetobacterium woodii) (UniProt P50009)
T1 sequence: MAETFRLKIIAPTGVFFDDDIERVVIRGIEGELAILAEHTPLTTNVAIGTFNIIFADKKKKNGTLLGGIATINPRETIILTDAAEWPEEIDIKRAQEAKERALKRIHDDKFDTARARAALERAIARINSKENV


Experiments:
[1] = biological target: α-subunit of the F1 part of the Na+-F1FO-ATP synthase of Acetobacterium woodii, N-terminal StrepI tag (Acetobacterium woodii) (UniProt P50000); assay: native MS; LILBID-MS; purified subunits incubated in 50 mM KPi, 200 mM NaCl, 2 mM ATP, 2 mM MgCl2, 10% glycerol, pH 7.4, 4 °C, 1 h; exchanged into 100 mM ammonium acetate, 2 mM ATP, 2 mM MgCl2, pH 7.4; both purified
[2] = biological target: αβγ subcomplex seen in the in vitro assembly (Acetobacterium woodii) (UniProt P50000+P50002+P50005); assay: as above
[3] = biological target: β-subunit of the F1 part of the Na+-F1FO-ATP synthase of Acetobacterium woodii, N-terminal His6 tag (Acetobacterium woodii) (UniProt P50002); assay: as above
[4] = biological target: β-subunit of the F1 part of the Na+-F1FO-ATP synthase of Acetobacterium woodii, N-terminal His6 tag (Acetobacterium woodii) (UniProt P50002); assay: pull-down + native MS; subunits co-expressed in E. coli, complex co-purified by affinity chromatography (Ni-NTA) and SEC, analysed by LILBID-MS and SDS-PAGE
[5] = biological target: T1, ε-subunit of the A. woodii F1 ATP synthase with His6 tag (Acetobacterium woodii); assay: as above

Row | binding [1] | binding [2] | binding [3] | binding [4] | binding [5] | Binder
1 | no binding | no binding | no binding | – | – | δ-subunit of the F1 part of the Na+-F1FO-ATP synthase of Acetobacterium woodii, C-terminal His6 tag (protein, UniProt Q9RMB3 1-180) MSLVASKYARALFDVAVDKDQLDEIFSDFKTATDLFSSEKKFMDLMLTPSLNTGEKKGILMRSLESLSNQYVKNYLMILMDKNRFEDIFDIYEAFRKLCNEHKNLVEARVLTVIPLDETLRIALEENLAKRFNKKVILENEIDKSILGGAVVYVGDQIIDGSIKNQLSQMKKQVNNLRLH
2 | – | – | – | binds | binds weakly | γ-subunit of the A. woodii F1 ATP synthase (untagged, only obtained co-expressed with other subunits) (protein, UniProt P50005 1-302) MAENVQDIKRRIKSVNSTMQITHAMELVASAKLRKSRELAEGRRPYFEAMIESIGRIVEKSGNARNIFMDQREVKKTAYIIITGDKGLAGGYNVNVAKLVEEHITDKENAVLFTVGSRGRDHFRNREYHIQGEYLGISERPNFFNAKEVTAIVMEGFKNGEYDEVYIAYTKFVSTITQHAQMMKLLPLSAEELITSGKVKTTEETKEEKSKMSDRELTIMTYEPEPEELLKYLIPNFVSSTVYGSMIESAASEQGARRTAMESATTNANEMIDGLTLQYNRVRQAAITQEISEIVGGAEALN
